Some of the results follow.
tested on: T1, Caupolican (Caup) homeodomain DNA-binding domain; assay: PBM E-score (8-mer, recovered from the published 9-mer minima) (E-score (dimensionless, -0.5 to 0.5)); Drosophila protein; higher = stronger relative binding preference, active = 0.31 or more
T1 sequence: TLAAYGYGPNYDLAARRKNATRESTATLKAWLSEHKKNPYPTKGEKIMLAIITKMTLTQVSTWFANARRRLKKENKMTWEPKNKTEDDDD
Outline: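 Caup's homeodomain DNA-binding domain (residues 214-303) was produced by in vitro transcription and translation and applied at 100 nM to custom-designed protein binding microarrays. Each value is an enrichment score giving relative binding preference for a short DNA word; higher means stronger. Published 9-mer scores were the minimum of their two constituent 8-mer scores, and the 8-mer values were recovered from those minima. A cutoff of 0.31 marks candidate binding sequences.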

Sequence	PBM E-score
GGGATATA	inactive: -0.0036
AGCCGGGC	inactive: -0.217
GTTGGGAA	inactive: -0.0773
GAACAGAC	inactive: 0.172
ACCCCCGC	inactive: -0.25
AGCAGGAT	inactive: 0.0294
ATAATAAT	inactive: 0.192
ACATTCGA	inactive: 0.135
CGCTCAAC	inactive: -0.102
GCGCAGAA	inactive: -0.0554
AAGTATCT	inactive: 0.0556
GGCTGCAC	inactive: -0.132
GGCATTAA	inactive: -0.0379
AGTCAACC	inactive: -0.11
GATGCTTA	inactive: 0.00507
GGAGGTGA	inactive: -0.0714
AAACCTTG	inactive: 0.101
ATGTTTAC	inactive: 0.31
ATAACTAA	≥ 0.209
CACGTCAG	inactive: 0.0325
CGTAGGAG	inactive: -0.121
ACTGGTCC	inactive: -0.0339
GTGGATGA	inactive: 0.0588
CCCACCGG	inactive: -0.29
ACATGCAT	active: 0.376

Sequence	PBM E-score
AGAAGTCG	inactive: -0.0453
CATGTCTA	active: 0.359
GTGGGCTA	inactive: -0.126
CGCCTGTA	inactive: 0.0166
ATCCGGAG	inactive: -0.00172
AAACAATG	inactive: 0.256
AATAAATG	inactive: 0.186
AGACTTAA	inactive: -0.0298
CGGGCTGA	inactive: -0.224
CGGCGAAA	inactive: -0.107
AATCTTAA	inactive: 0.0317
GCCATAGA	inactive: -0.105
AATGGTGA	inactive: 0.0765
AGAAATAA	inactive: 0.0809
TACGCTGA	inactive: 0.0517
ACTTAGAA	inactive: 0.0598
GAGTCCCC	inactive: -0.298
ATCCAATC	inactive: 0.102
ACAGGAGT	inactive: 0.0982
AGCACGGC	inactive: -0.0403
CCCATAAA	inactive: -0.0849
CAGCCTGA	inactive: -0.135
ACTTTTAC	inactive: 0.123
ATTGACGA	≥ 0.125
ATGCAAAC	inactive: 0.0812

Sequence	PBM E-score
TTATGGAA	inactive: 0.103
GTCAGAGA	inactive: 0.0222
CGATAGAA	inactive: -0.00872
CTTGGCGC	inactive: -0.221
CATATTGG	inactive: 0.129
AATAAAGC	inactive: 0.0404
CAGTTCGC	inactive: -0.0821
GAAATCAA	inactive: -0.0249
TAAATCAA	inactive: 0.0882
GATCAGCA	inactive: 0.00808
AGACCCGC	inactive: -0.132
AGGATCGG	inactive: -0.0952
ACGGATCG	inactive: 0.00507
TGAGCCCA	inactive: -0.146
ATGAGACG	inactive: -0.0343
ACAGAGGA	inactive: 0.0112
ACCGGAGG	inactive: -0.152
AGACCCCA	inactive: -0.155
TGCTTACA	inactive: 0.191
ACGTATTG	inactive: 0.151
GCACGGAC	inactive: 0.0333
ACGGTCTA	inactive: -0.00318
GCTCCGGA	inactive: -0.114
AGCAACAG	inactive: 0.0919
CGCGTCTA	inactive: 0.0359

Sequence	PBM E-score
ACAAGAGT	inactive: 0.282
ATAAGAAG	inactive: -0.00655
ATGTTCAG	inactive: 0.295
CACTGTAA	inactive: 0.156
CTGACACA	inactive: 0.2
AGGTTCTA	inactive: 0.00811
CAAGCAGC	inactive: 0.0314
ATCCACGA	≥ 0.04
ATACGCCC	inactive: -0.159
GAGGGGGC	inactive: -0.341
CATTACTA	inactive: 0.164
CGATGTCC	inactive: 0.143
GGAGTTAA	inactive: 0.107
ATCAGTGA	inactive: 0.0654
AAAATGCT	≥ 0.12
CGTGGTCC	inactive: -0.111
CCTATGAC	inactive: -0.0544
AGTTGAGC	inactive: -0.00996
AAGTCGAG	inactive: -0.0576
CCACAGGG	inactive: -0.138
CTGGCGAA	inactive: -0.118
AACTAAGC	inactive: 0.00617
GAGACCCA	inactive: -0.173
ACCAGGTG	inactive: -0.033
GAAAATAA	inactive: 0.101

Sequence	PBM E-score
CATTGCTC	inactive: -0.0487
CAGTCTTA	inactive: 0.0412
GGCCCGCC	inactive: -0.302
GTTTAGAA	inactive: 0.121
GTTCATTA	inactive: 0.14
ATCTGAGC	inactive: 0.0229
AGAAGGAC	inactive: -0.11
CTGAGATC	inactive: -0.158
ATTCGTTC	inactive: 0.0639
GAAAACTC	inactive: -0.0668
TCATGCGA	inactive: -0.0125
ATTTCAAC	inactive: 0.159
CGAGGCAG	inactive: -0.13
AACTCTGC	inactive: -0.123
GGAAACTA	inactive: -0.0739
ATTTCGCG	inactive: -0.0534
CTCCGAGA	inactive: -0.176
TACCTCTA	inactive: 0.0716
ACGACGGA	≥ 0.0398
CAGGGAGA	inactive: -0.185
AAGTTGGG	inactive: -0.113
AACAATGT	active: 0.345
AATTGGGA	inactive: 0.0634
AACCTGTG	inactive: 0.0952
TAACGCTA	inactive: -0.0254

Sequence	PBM E-score
ATTTACTG	inactive: 0.192
ATGGCTTG	inactive: 0.0539
ACACTAGT	inactive: 0.203
AATGCCCC	inactive: -0.162
CCGCGCAA	inactive: -0.0683
CGATTCGA	inactive: 0.0131
CTGGGCCC	inactive: -0.293
CCTAGTCG	inactive: -0.0446
CTACGAGC	inactive: -0.0318
ACGCTGTC	inactive: 0.0456
ATATTTTC	inactive: 0.129
ACTCAAGA	inactive: -0.0159
CTGCACAC	inactive: 0.0423
CGACGCTC	inactive: -0.151
GTTTGCAA	inactive: 0.169
AGGTTGTC	inactive: 0.267
ATCTCTGC	inactive: -0.0013
AGATAGCG	inactive: -0.0272
AACGACCG	inactive: -0.0242
AGTAAATA	inactive: 0.194
CAATCTTC	inactive: 0.0296
GTGCAGTA	inactive: -0.0289
GCCAACAC	inactive: 0.0511
GAGCTGGA	inactive: -0.102
ATCACTCC	inactive: 0.00786

Sequence	PBM E-score
ATACGCAG	inactive: -0.0118
CACGCCCC	inactive: -0.244
TGGTTTAA	≥ 0.118
ATCTCGTG	inactive: 0.0492
ATTCCCCC	inactive: -0.246
CAAATATC	inactive: 0.166
GTACCAGA	inactive: 0.149
GATAGCTA	inactive: 0.0116
CGACTGAC	inactive: -0.0927
ACGCTTCT	inactive: -0.12
CCCGTACA	inactive: 0.0807
GCAGCAAC	inactive: 0.00771
TATGTCCA	inactive: 0.214
ATGAACCC	inactive: -0.016
CACTTTGC	inactive: 0.0162
CGGGAGCA	inactive: -0.149
GGTGCAGA	inactive: -0.108
AATTGCCT	inactive: -0.0191
CCGTCTTC	inactive: -0.177
AGACCCAT	inactive: -0.068
CTACCTGA	inactive: 0.0418
CACCAAAG	inactive: -0.0937
CTCCCTGA	inactive: -0.0947
AAGCTAAC	inactive: 0.137
ATATTGAG	inactive: 0.0745

Sequence	PBM E-score
CAACTAGG	inactive: 0.0603
GATGCAGC	inactive: -0.0861
CAATTTCC	inactive: 0.023
ATACATCC	inactive: 0.276
AACTTCCA	inactive: -0.0702
AATCCATT	inactive: 0.102
AGGCCGAT	≥ -0.0908
AGCGCTGG	inactive: -0.168
CGTACTTA	inactive: 0.135
CACCACCC	inactive: -0.0973
CAACCGCA	inactive: -0.00954
ATGATCTC	inactive: 0.0147
CGTGAGTA	inactive: 0.0229
AAGCTCGC	inactive: -0.14
GACCGCCA	inactive: -0.199
AACTTGGG	inactive: -0.156
GGAATCTA	inactive: -0.0141
CACTCCCC	inactive: -0.125
CCATGGGG	inactive: -0.157
CGAGGTGA	inactive: -0.0862
GAGAAGGC	inactive: -0.233
AAATAGTC	inactive: 0.0311
AGCCAATA	inactive: 0.0164
CACTCTGG	inactive: -0.0952
GCCGTAAC	inactive: -0.00927

Sequence	PBM E-score
CTGTTAAA	inactive: 0.108
CGCTGCAC	inactive: -0.11
GGTTTGTA	inactive: 0.0967
ACTAATAC	inactive: 0.199
CGGCCTTC	inactive: -0.226
CCATGTAC	active: 0.411
AAATCGAG	inactive: -0.0744
ACCAGGGG	inactive: -0.212
ATACGAAA	inactive: 0.134
CCGCCCGA	inactive: -0.152
GACCCACA	inactive: -0.0733
ACAATTCG	inactive: 0.163
AGATGTTC	inactive: 0.286
CGGCACAA	inactive: 0.00537
AAATCCGC	inactive: -0.066
AAATACGC	inactive: 0.0502
AAGTCTTC	inactive: -0.0607
ATTCAGCG	inactive: -0.0867
CAAGCCAC	inactive: -0.14
AGACCCTA	inactive: -0.0889
CATTTTTC	inactive: 0.143
AACAATAC	inactive: 0.244
ATTACAAA	inactive: 0.259

Source: the supplement of paper PMC3724861
